Article PMC4336329 (PLoS ONE, 2015)
About 2,200 (0.71%) of roughly 310,000 compounds showed an effect of 50% or more. Effects have a minus sign here. The list shows a part of the results. Where a SMILES comes first, the peptide text is derived from it. The star is where a group is joined. Boc = CC(C)(C)OC(=O)*

molecular target: human ether-à-go-go-related gene (hERG) potassium channel (human, UniProt Q12809); test: primary screen, population patch clamp on CHO cells stably expressing hERG
Sequence (Q12809 whole entry, looked up): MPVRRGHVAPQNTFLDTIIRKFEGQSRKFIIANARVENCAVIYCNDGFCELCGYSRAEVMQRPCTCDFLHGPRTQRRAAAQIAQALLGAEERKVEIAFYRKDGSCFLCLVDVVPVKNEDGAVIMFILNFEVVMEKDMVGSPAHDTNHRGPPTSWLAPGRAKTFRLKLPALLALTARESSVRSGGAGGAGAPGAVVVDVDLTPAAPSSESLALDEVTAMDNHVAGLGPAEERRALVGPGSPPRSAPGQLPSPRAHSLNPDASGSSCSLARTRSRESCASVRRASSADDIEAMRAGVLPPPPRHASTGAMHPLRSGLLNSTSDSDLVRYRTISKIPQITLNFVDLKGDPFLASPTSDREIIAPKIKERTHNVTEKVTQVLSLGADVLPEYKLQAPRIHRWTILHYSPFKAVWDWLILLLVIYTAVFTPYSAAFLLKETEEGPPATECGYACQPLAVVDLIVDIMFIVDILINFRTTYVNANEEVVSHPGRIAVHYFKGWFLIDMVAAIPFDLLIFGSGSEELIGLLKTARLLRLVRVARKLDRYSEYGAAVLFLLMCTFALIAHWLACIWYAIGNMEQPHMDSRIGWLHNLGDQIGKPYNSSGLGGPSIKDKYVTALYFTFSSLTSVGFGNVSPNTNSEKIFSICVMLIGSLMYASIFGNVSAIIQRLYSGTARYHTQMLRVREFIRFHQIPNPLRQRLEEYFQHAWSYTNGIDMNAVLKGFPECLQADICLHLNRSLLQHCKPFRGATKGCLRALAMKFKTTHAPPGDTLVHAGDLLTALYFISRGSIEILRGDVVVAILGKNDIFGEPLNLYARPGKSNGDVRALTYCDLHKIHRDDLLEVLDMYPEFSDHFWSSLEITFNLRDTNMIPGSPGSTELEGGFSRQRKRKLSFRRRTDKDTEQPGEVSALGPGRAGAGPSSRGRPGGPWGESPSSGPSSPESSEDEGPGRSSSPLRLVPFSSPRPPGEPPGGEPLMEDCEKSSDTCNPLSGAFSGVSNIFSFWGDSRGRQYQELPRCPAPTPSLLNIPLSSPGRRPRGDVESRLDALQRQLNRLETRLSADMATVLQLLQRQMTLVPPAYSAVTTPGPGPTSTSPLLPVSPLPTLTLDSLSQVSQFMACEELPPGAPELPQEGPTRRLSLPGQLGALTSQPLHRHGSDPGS

Row | SMILES | hERG current change (%, negative = inhibition) at 1uM [%]
1 | COc1ccc(C(=O)NC(=S)Nc2cccnc2)cc1OC | 8.4
2 | O=c1[nH]cnc(O)c1C(c1ccc([N+](=O)[O-])cc1)c1c(O)nc[nH]c1=O | 13
3 | Cc1ccc(C)c(OCCCCn2cnc3ccccc3c2=O)c1 | 7.56
4 | CNC(=S)N(Cc1ccc(OC)cc1)C1CC(=O)N(c2ccc(OC)cc2)C1=O (stereo not drawn) | -13.3
5 | O=C(CNC(=O)c1ccc(Br)cc1)NCC(=O)OCC(=O)c1ccc(F)cc1 | 13.9
6 | CCN(Cc1ccccc1)C(=O)CSc1ccccc1C(=O)O | 13.6
7 | Cc1cc(OCCNCCO)cc(C)c1Cl | -7.14
8 | Cc1ccc(S(=O)(=O)NCc2cccnc2)cc1C(=O)N1CCCC1 | 13.4
9 | CC(C)c1c(C(=O)N/N=C/c2ccco2)nnn1-c1nonc1N | 10
10 | Cc1nnc(SCC(=O)O)s1 | 3.78
11 | CC(=O)c1c(C)[nH]c(C(=O)Nc2cc(S(=O)(=O)N3CCCCC3)ccc2C)c1C | 10.1
12 | O=C(CSc1nnc(-c2ccco2)o1)c1ccc(O)cc1O | 10.6
13 | Cc1cccnc1NC(=O)CNC(=O)c1ccccc1 | 6.71
14 | CCOC(=O)Cn1c(-c2cccnc2Cl)nc2ccccc21 | 12.9
15 | CC(C)CN(C(=O)C1CC1)C1CCS(=O)(=O)C1 (stereo not drawn) | -0.949
16 | CCOC(=O)c1cc(C)nn1-c1nc(Cl)cc(OC)n1 | -0.348
17 | CCOC(=O)C(NC(=O)c1ccccc1)(OCc1ccccc1)C(F)(F)F (stereo not drawn) | 2.21
18 | Cc1ccc(C)c(S(=O)(=O)NCC(=O)NCc2ccco2)c1 | 4.55
19 | CCCC(c1nnnn1CCOC)N1CCN(c2nc3ccccc3s2)CC1 (stereo not drawn) | -18
20 | N#Cc1ccc(/C=N/NC(=S)Nc2ccc(S(=O)(=O)N3CCOCC3)cc2)cc1 | 4.43
21 | CCC(C)C(NC(=O)c1ccccc1NC(=O)c1ccc(OC)cc1)C(=O)NCc1ccco1 (stereo not drawn) | 10.6
22 | O=C(Cc1c[nH]c2ccccc12)NCC(=O)Nc1ccc(F)c(F)c1F | 9.26
23 | COc1cc2ccccc2cc1C(=O)N1CCN(c2ccccn2)CC1 | -3.96

Row | SMILES | hERG current change (%, negative = inhibition) at 1uM [%]
24 | COc1ccc(-n2cc(CNCCc3nc(C)cc(C)n3)c(-c3ccccc3Cl)n2)cc1 | -1.55
25 | Cc1ccc(S(=O)(=O)N2CCCC(C(=O)NCc3ccccc3F)C2)cc1 (stereo not drawn) | 22.8
26 | COc1ccc2cc(CO)c(Cl)nc2c1 | 13.8
27 | COc1ccc(NC(=O)c2ccc3snnc3c2)cc1 | 5.83
28 | CCOC(=O)c1ccc[n+](CC(=O)Nc2cc(C(F)(F)F)ccc2Cl)c1.[Cl-] | 10.4
29 | C=CCn1c(O)c(N=NC(=S)Nc2ccc(OC)c(Cl)c2)c2ccccc21 | 33.2
30 | Cc1[nH]c2ccccc2c1C(=O)CSc1ccc(Cl)cc1 | 15.6
31 | CC(C)(C)NCCCOc1ccc(Cl)cc1C(C)(C)C.O=C(O)C(=O)O | -2.84
32 | Clc1ccc2[nH]cc(-c3nnnn3-c3ccc4ccccc4c3)c2c1 | 19.5
33 | COc1ccc(CCNC(=O)CC(Cc2ccccc2)C(=O)O)cc1OC (stereo not drawn) | 10.1
34 | Cc1cccc([C@@H]2[C@@H]3C(=O)N(Cc4ccccc4)C(=O)[C@@H]3[C@]3(Cc4ccccc4)C(=O)N(c4ccccc4)C(=O)N23)c1 | 12
35 | O=C(c1cnccn1)N1CCN(S(=O)(=O)c2ccc3ccccc3c2)CC1 | 9.17
36 | Nc1c(C(=O)Nc2cccc(C(=O)O)c2)sc2nc3c(cc12)CCCC3 | 11.7
37 | COc1ccc(OC)c(S(=O)(=O)CC(O)COc2ccccc2Cl)c1 (stereo not drawn) | 12.4
38 | COc1ccc(CN(C#N)c2nc(SC)nc(N(C)C)n2)cc1 | 8.91
39 | COc1ccc(C(=O)OC(C)CN2CCOCC2)cc1.Cl (stereo not drawn) | 1.84
40 | Cc1csc(NC(=O)CSc2nnc(-c3cccs3)n2C)n1 | -7.02
41 | O=C(NCC1COc2ccccc2O1)c1cc2ccccc2o1 (stereo not drawn) | 12.3
42 | O=C(Cc1csc(NC(=O)Nc2cccc(Cl)c2)n1)NCc1cccnc1 | -44.2
43 | COc1ccc(OC)c(/C=N/NC(=O)c2cccc3ccccc23)c1 | 13.8
44 | CCOC(=O)C1Nc2c(F)cc(C)cc2C2C=CCC12 (stereo not drawn) | 15
45 | O=c1ccc(Oc2nc(N3CCOCC3)nc(N3CCOCC3)n2)n[nH]1 | 4.65
46 | Nc1c(C(=O)CSc2nccn2-c2ccc(Cl)cc2)c(=O)[nH]c(=O)n1C1CC1 | 15.6

Row | SMILES | hERG current change (%, negative = inhibition) at 1uM [%]
47 | CCC(C)C(NC(=O)OC(C)(C)C)C(=O)NC(CC(C)C)C(N)=O (stereo not drawn) (Boc-Ile-Leu-NH2; configuration not given here) | 11.3
48 | Cc1nc(N2CCOCC2)nc2c1CCC2 | 10.2
49 | Clc1ccc(CN2CCSCC2)cc1Cl | 15.1
50 | CCCOC(=O)CC1C(=O)NCCN1Cc1ccccc1C (stereo not drawn) | 13.9
51 | CCOc1ccc(-c2nnn(CC(=O)N3CCN(c4ccc(OC)cc4)CC3)n2)cc1OCC | 9.06
52 | O=C1NC(Cc2ccccc2)c2nc3cc(F)ccc3c(=O)n2-c2cc(Cl)ccc21 (stereo not drawn) | 11.9
53 | CCOC(=O)c1ccccc1NC(=O)c1ccc2nccnc2c1 | 0.379
54 | O=C(CCCc1nc2ccccc2s1)Nc1ccc(N2CCOCC2)cc1 | 26.4
55 | O=[N+]([O-])c1ccc([C@H](O)[C@H](CO)N=Cc2ccccc2O)cc1 | 15.5
56 | COc1cccc(NC(=O)Nc2c(C)n(C)n(-c3ccccc3)c2=O)c1 | 15.8
57 | CCCNC(=O)CCNC(=O)c1ccc(C(C)(C)C)cc1 | -7.66
58 | CCc1noc(C)c1C(=O)Nc1cc(S(=O)(=O)N2CCOCC2)ccc1OCC(F)(F)F | 16.7
59 | O=C(Cn1cnc2ccccc2c1=O)N1CCOCC1 | 6.13
60 | N/C(=N\OC(=O)CCCOc1ccccc1)c1ccccn1 | 9.43
61 | CCOc1ccc(S(=O)(=O)n2nnc3ccccc32)cc1C(C)C | 7.8
62 | Cc1cc(-c2csc3nc[nH]c(=S)c23)cc(C)c1C | 16.7
63 | O=C(NCc1ccco1)[C@@H]1CSC2c3ccccc3C(=O)N21 (stereo partly drawn) | 9.01
64 | CC1CCCCN1S(=O)(=O)c1cnc(Cl)c(Br)c1 (stereo not drawn) | 3.62
65 | CN1CCCN(Cc2nc(-c3ccc(Cl)cc3)no2)CC1 | -31.4
66 | COc1ccc(NS(=O)(=O)c2ccc(C)c(C(=O)NCC(c3ccco3)N(C)C)c2)cc1 (stereo not drawn) | 4.41
67 | O=C(NCc1ccco1)C1CCN(C(=O)c2cc3sccc3n2Cc2ccc(F)cc2)CC1 | -26.5
68 | O=C(NC12CC3CC(CC(C3)C1)C2)N1CCC(O)CC1 | 11.2
69 | CC(C)[C@H](NC(N)=O)C(=O)Nc1cccc(S(=O)(=O)N2CCOCC2)c1 | 8.72

Row | SMILES | hERG current change (%, negative = inhibition) at 1uM [%]
70 | CCOc1ccc(CCNC(=O)C2CC(=O)N(c3ccccc3OCC)C2)cc1OCC (stereo not drawn) | 25
71 | Cc1c(S(=O)(=O)c2ccccn2)c(N)n(Cc2ccccc2Cl)c1C | 19.4
72 | CCOC(=O)c1cccc(NC(=O)c2cnc3ccccc3n2)c1 | -4.01
73 | O=C(COc1ncnc2sccc12)NC1CCS(=O)(=O)C1 (stereo not drawn) | 11.9
74 | O=C(Nc1cccc(C(F)(F)F)c1)OCc1ccncc1 | 4.89
75 | Cc1cc(NC(=O)COC(=O)c2cc3c(s2)CCC(C)C3)no1 (stereo not drawn) | 4.79
76 | COc1cc(/C=C/C(=O)N2CCC=CC2=O)cc(OC)c1OC | 13.8
77 | CCOC(=O)N/N=C\c1ccc(OC(=O)c2ccco2)cc1 | 17.9
78 | CCCCn1c(N)c(N(CC(C)C)C(=O)c2cc3c(s2)CCCCC3)c(=O)[nH]c1=O | -6.57
79 | CCCCCC(C)n1[nH]c(=O)c2c(C)cc(C)nc21 (stereo not drawn) | 18.1
80 | COc1ccc(NC(=O)CCc2ccccc2)cc1NC(=O)c1ccco1 | 0.649
81 | Cc1ccsc1/C=N/NC(=O)c1ccncc1 | 8.31
82 | C[C@H](NC(=O)c1nc[nH]c1C(=O)NCC(=O)OCc1ccccc1)C(=O)OC(C)(C)C | 6.28
83 | Cc1c(CN2CCCC(C(=O)c3cccc(Cl)c3)C2)c(=O)n(-c2ccccc2)n1C (stereo not drawn) | 1.56
84 | O=C(Nc1ccc(Cl)cc1)C1C2C=CC3(O2)C1C(=O)N(CCCN1CCCCC1)C3C(=O)NC1CCCCC1 (stereo not drawn) | 4.08
85 | O=C(CCC1CCCC1)NCc1ccccn1 | 13.5
86 | COC(=O)C(C)(N)Cc1ccc(O)cc1.Cl (stereo not drawn) | 12.7
87 | COC(=O)C1=NN(C(C)(C)CC(C)=O)C2C(=O)N(C3CCCCC3)C(=O)C12 (stereo not drawn) | 4.56
88 | Cc1cc(C)n(-c2nc3nonc3nc2-n2nc(C)cc2C)n1 | 8.19
89 | CCN(CC(=O)NC1CCCCCC1)S(=O)(=O)c1ccccc1 | -13.9
90 | COc1ccc(C(=O)n2cnc3ccccc32)cc1[N+](=O)[O-] | 9.89
